Hit rate of the full screen: of about 410,000 compounds, about 850 (0.21%) were called active. Inconclusive means that the source gave no clear call. Such entries were picked first, then a sample of the others. Calls follow the shape of the dose curve; as a rule, active = well fitted inhibition curve with a large enough effect; inconclusive = small, poorly fitted or top-dose-only effect, or another doubt; inactive = no such curve, though single readings can be large or run the other way. Potencies beside an inconclusive call are fits to weak or partial responses and may not hold up.
The compounds below were run against Glutaminase kidney isoform, mitochondrial (Homo sapiens) (UniProt O94925) (assay: qHTS for Inhibitors of Glutaminase (GLS)). Conditions: GLS enzymatic activity, qHTS titration; series mostly up to 45.5 µM; activity change, negative = inhibition: at the top concentration.
Procedure, shortened: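 Read-out is an Amplex red fluorescence increase coupled through glutamate oxidase and HRP, measured before and after 30 min room-temperature incubation. hKGA is in 45 mM KH2PO4 (pH 8.2) with 0.02% Tween-20; glutamine added as 1mM solution.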
% is scaled to controls: 0 for no effect and ±100 for the full control effect; potency is read from the fitted curve at half-maximal effect; tags tell the direction and shape of the fitted curve.

Sequence of UniProt O94925 (O94925 whole entry, looked up, canonical isoform): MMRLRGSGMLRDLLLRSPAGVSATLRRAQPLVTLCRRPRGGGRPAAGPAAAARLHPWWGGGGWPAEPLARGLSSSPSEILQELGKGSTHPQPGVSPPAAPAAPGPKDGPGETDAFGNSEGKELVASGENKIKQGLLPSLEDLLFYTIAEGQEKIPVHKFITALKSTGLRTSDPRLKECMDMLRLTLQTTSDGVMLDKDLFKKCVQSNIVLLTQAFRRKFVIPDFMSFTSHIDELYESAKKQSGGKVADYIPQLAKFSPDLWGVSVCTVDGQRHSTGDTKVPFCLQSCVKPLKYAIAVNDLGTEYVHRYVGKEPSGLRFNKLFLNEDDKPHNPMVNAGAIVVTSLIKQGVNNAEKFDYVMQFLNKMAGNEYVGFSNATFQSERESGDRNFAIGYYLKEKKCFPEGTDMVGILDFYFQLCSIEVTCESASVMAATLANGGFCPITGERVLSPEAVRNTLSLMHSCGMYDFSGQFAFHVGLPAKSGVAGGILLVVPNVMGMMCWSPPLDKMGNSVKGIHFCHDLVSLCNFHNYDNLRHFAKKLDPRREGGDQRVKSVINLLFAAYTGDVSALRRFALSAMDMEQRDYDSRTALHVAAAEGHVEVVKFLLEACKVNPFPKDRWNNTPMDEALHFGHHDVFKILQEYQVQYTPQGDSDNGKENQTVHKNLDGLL

Activity change, negative = inhibition, inactive:
COC(=O)C1(Cc2cc(-c3cccc(Br)c3)no2)CCN(C(=O)OC(C)(C)C)CC1 1.8%
CCCCNc1cc(C)nc(NCc2ccccc2)n1 10.3%
S=c1[nH]nc(Cc2ccc(Br)cc2)n1/N=C/c1ccc(Cl)cc1 3.45%
Cc1cc(C)n(C(=O)Cc2cn3ccsc3n2)n1 -5.43%
C[C@H](c1ccccc1)N1C[C@@H](COCc2ccccc2)Oc2cc(N3CC[C@H](O)C3)ccc2S1(=O)=O 8.92%
CC(=O)Nc1ccc(S(=O)(=O)N2CCC(NC(=O)C(Cc3ccccc3F)NC(C)=O)CC2)cc1 (centres undefined) -14.8%
CSCC[C@H](NC(=O)c1ccc(Br)o1)c1nnc2ccccn12 -14.2%
O=C(NC1CCCC1)C(c1ccccc1F)N(C(=O)Cc1cccs1)c1ccc2c(c1)OCCO2 (centres undefined) -5.57%
Cn1c(-c2ccc(F)cc2)cnc1SCC(=O)Nc1ccccc1 7.61%
CCn1cc([N+](=O)[O-])c(C(=O)Nc2nc(-c3ccc(C)c(C)c3)c(C)s2)n1 -0.257%
CCOC(=O)C(=CNc1nc(-c2ccccc2)c(C(=O)Nc2ccc(-c3ccccc3)cc2)s1)C(=O)OCC -2.04%
O=C(NCc1ccccc1)c1cccn1-c1nnc(N2CCCC2)s1 4.71%

Potency, active:
Cc1cc(C)c2c(c1)NC(C(=O)O)C1CC=CC21 (centres undefined) 10 µM
O=c1c2cccc(Cl)c2nc2n1Cc1ccccc1-2 12.6 µM
CN(N=Cc1ccccc1)C(=S)Nc1ccccc1 15.8 µM

Potency, inconclusive:
CC1(C)Cc2c(cnn2-c2ccc(F)cc2)C(NC(=O)CCN2CCCC2=O)C1 (centres undefined) 31.6 µM [inhibitor, single point]
CC(=O)c1c(C)oc2ccc(NS(=O)(=O)c3ccc(O)c(C(=O)O)c3)cc12 35.5 µM [inhibitor, single point]
O=C(NCc1ccccc1F)Nc1nnc([C@H]2C[C@H](O)[C@@H](CO)O2)s1 0.631 µM [inhibitor, partial curve, poor fit]
CN1CCN(Cc2nc3c([nH]2)c(=O)[nH]c(=O)n3C)CC1 28.2 µM [inhibitor, single point]
O=C(NC(=S)NNC(=O)c1ccccc1F)c1cccnc1 25.1 µM [inhibitor, single point]
NC(=O)[C@H]1CC2(CC(c3cccc(NC(=O)[C@H]4CCC(=O)N4)c3)=NO2)CN1C(=O)c1ccccc1 (some centres undefined) 31.6 µM [inhibitor, single point]
Cc1c(CC(=O)NCC(=O)NCC(=O)O)c(=O)oc2cc3oc4c(c3cc12)CCCC4 0.447 µM [inhibitor, partial curve, poor fit]
CC1=NN(c2ccccc2)C(=O)/C1=C\c1ccc(Br)s1 7.08 µM [inhibitor, partial curve, poor fit]
O=C(O)/C=C/C(=O)Nc1ccc(O)cc1 20 µM [inhibitor, single point]
C=CCn1c(-c2csc(-c3ccccc3)n2)n[nH]c1=S 6.31 µM [inhibitor, partial curve]
Cn1c(-c2ccco2)n[nH]c1=S 12.6 µM [inhibitor, partial curve]
CC(C)=CCC1=C(OCC(=O)O)C(=O)c2ccccc2C1=O 20 µM [inhibitor, single point]
CCCNC(=O)COC(=O)c1c2c(nc3ccccc13)CCC2 17.8 µM [inhibitor, partial curve, poor fit]
CCCCCCCCCCCCCCCC[n+]1cccc(C(=O)N(CC)CC)c1 25.1 µM [inhibitor, single point]
Cc1ccc(-n2c(C)nnc2SCC(=O)Nc2ccccc2)cc1 0.199 µM [inhibitor, full curve, poor fit]
N#Cc1nc(-c2ccco2)oc1NCc1ccccc1Cl 17.8 µM [inhibitor, partial curve]
COc1ccc(CC(=O)NCc2nnc(SCC(=O)Nc3ncc(C)s3)n2C)cc1 35.5 µM [inhibitor, single point]
Cc1ccc2c(c1)C(c1ccccc1)C(=O)O2 (centres undefined) 35.5 µM [inhibitor, single point]
CCN(CC(=O)Nc1ccc(OC)cc1)C(=O)c1ccc([N+](=O)[O-])cc1 11.2 µM [inhibitor, partial curve, poor fit]
CC(C)(C)N1NC2(CCCCC2)NC1=S 35.5 µM [inhibitor, single point]
O=C(CSc1nnc(-c2ccco2)n1-c1ccccc1)N1CCN(C(=O)c2ccco2)CC1 20 µM [inhibitor, single point]
O=C(O)COc1ccccc1/C=N/Nc1ccc(S(=O)(=O)Nc2ccc(Cl)cc2)cc1[N+](=O)[O-] 35.5 µM [inhibitor, single point]
CCc1nc2ccc(C(=O)NCc3cc(OC)ccc3OC)cc2nc1CC 5.62 µM [inhibitor, full curve, poor fit]
CCOc1ccc(OCCSc2nc(C)cc(=O)[nH]2)cc1 35.5 µM [inhibitor, single point]
COc1cc(/C=C2/SC(=S)NC2=O)ccc1OS(=O)(=O)c1ccc(C)cc1 15.8 µM [inhibitor, single point]
Nc1ccc2c(c1)OC1(CCCC1)O2 25.1 µM [inhibitor, single point]
Cc1ccc(N(C(C)C(=O)Nc2ccc3c(c2)OCO3)S(C)(=O)=O)cc1 (centres undefined) 35.5 µM [inhibitor, single point]
COc1ccc(CC(=O)NCc2n[nH]c(=S)n2-c2ccc(Br)cc2)cc1 15.8 µM [inhibitor, single point]
Cn1c(CNC(=O)c2ccccc2)nnc1SCC(=O)Nc1nccs1 35.5 µM [inhibitor, single point]
